Screen size: about 310,000 compounds; about 2,200 (0.71%) showed an effect of 50% or more. The effect is printed as a negative number. Some of the results follow.
target: human ether-à-go-go-related gene (hERG) potassium channel (human, UniProt Q12809); test: primary screen, population patch clamp on CHO cells stably expressing hERG
Sequence (Q12809 whole entry, looked up): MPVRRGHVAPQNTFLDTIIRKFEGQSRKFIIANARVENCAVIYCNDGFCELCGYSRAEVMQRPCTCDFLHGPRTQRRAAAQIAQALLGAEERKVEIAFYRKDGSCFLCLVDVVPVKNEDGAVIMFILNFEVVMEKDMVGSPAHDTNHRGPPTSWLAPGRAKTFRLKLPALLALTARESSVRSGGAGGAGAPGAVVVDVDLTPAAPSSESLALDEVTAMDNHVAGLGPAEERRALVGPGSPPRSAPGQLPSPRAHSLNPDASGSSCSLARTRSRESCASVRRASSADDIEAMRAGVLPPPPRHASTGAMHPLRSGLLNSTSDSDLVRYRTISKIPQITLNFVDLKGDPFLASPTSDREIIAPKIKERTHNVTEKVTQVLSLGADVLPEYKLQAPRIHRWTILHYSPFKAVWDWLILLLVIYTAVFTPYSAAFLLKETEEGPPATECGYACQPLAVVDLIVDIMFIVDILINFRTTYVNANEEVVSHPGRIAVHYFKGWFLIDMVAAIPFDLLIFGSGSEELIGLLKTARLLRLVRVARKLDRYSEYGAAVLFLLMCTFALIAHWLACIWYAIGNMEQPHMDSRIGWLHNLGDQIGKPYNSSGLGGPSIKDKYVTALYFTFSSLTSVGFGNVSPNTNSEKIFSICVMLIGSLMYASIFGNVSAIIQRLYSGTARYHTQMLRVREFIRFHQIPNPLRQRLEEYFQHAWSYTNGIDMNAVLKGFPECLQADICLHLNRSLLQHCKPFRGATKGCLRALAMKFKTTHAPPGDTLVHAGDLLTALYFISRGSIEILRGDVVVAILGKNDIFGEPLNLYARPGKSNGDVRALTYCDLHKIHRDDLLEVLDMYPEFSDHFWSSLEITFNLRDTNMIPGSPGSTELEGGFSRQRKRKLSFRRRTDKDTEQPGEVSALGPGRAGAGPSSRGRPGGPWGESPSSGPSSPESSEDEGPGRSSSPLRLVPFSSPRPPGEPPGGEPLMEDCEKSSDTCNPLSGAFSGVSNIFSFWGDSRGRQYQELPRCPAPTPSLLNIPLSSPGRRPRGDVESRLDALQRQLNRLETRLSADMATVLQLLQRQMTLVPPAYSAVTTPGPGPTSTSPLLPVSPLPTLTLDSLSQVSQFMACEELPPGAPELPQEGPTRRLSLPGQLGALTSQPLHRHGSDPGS

SMILES	hERG current change (%, negative = inhibition) at 1uM [%]
O=C(Nc1ccccn1)c1ccc2c(=O)n3c(nc2c1)CCCCC3	0.0986
COc1ccccc1OCCNC(=O)c1cc(C2CC2)nc2c1cnn2C(C)C	1.77
Cc1ccc(NC(=O)C2(c3ccccc3)CCCC2)nc1	4.05
O=C(Cn1cc(C(F)(F)F)cc(Cl)c1=O)NCC1COc2ccccc2O1 (centres unmarked)	11.5
Cc1ccc(CNC(=O)c2ccc(N3CCC4(CC3)CC(c3ccccc3)=NO4)c([N+](=O)[O-])c2)cc1	6.09
CCOc1ccc2nc(CN3CCN(Cc4ccccc4OCC)C(CCO)C3)ccc2c1 (centres unmarked)	-14.9
Cc1ccc(C2=NN(CC(=O)NCc3cccnc3)C(=O)CC2)cc1	4.83
COc1ccc(C2C(C(=O)O)CCC(=O)N2c2ccc(C)cc2)cc1OC (centres unmarked)	8.3
O=C(c1ccccc1)C1CCN(C(=O)c2cccs2)CC1	2.32
Clc1ccc(-c2nn3c(C4COc5ccccc5O4)nnc3s2)cc1 (centres unmarked)	13.3
O=C(NCCCN1CCCCCC1)C1CC(=O)N(CCc2ccccc2)C1 (centres unmarked)	8.62
CCC1(CC)C(=O)NC(=O)NC1=NCCc1ccc(O)cc1	5.05
COc1ccccc1NC(=O)/C=C1\NC(=O)CS1	6.78
O/N=C\c1cnc(N2CCN(c3ccccc3)CC2)s1	11.5
O=C1CC(C(=O)Nc2ccc(Br)cc2)S/C(=N\N=C\c2ccco2)N1 (centres unmarked)	11.3
O=c1[nH]c(=S)n(Cc2ccc(F)cc2)c(O)c1/C=N/N1CCCCC1	8.67
Nc1cc(OC(=O)c2ccco2)nn1S(=O)(=O)c1ccc(F)cc1	13.4
COc1ccc2c(c1)C=C([C@@H]1C[C@H]3CN(c4ccccc4)C(=O)[C@]34CCCN14)CO2	-4.08
CC(=O)Nc1ccc(NC(=O)C(NS(=O)(=O)c2ccc3c(c2)OCCO3)C(C)C)cc1 (centres unmarked)	4.18
CC(NC(=O)/C(=C/c1cccc([N+](=O)[O-])c1)NC(=O)c1ccco1)C(=O)O (centres unmarked)	2.91
COc1cc2c(cc1OC)C(C)N(C(=O)c1cc3c(s1)-c1c(C)cccc1OC3)CC2 (centres unmarked)	6.14
CN1CC=C(/C=C/c2ccc(-c3ccccc3)cc2)CC1.Cl	-1.22
Cn1nnc(NC(=S)NC(=O)Cc2ccccc2)n1	2.29

SMILES	hERG current change (%, negative = inhibition) at 1uM [%]
O=c1c2c(-c3ccccc3)csc2ncn1/N=C/c1cccc([N+](=O)[O-])c1O	17.7
C=CCN(c1cccc(C(F)(F)F)c1)S(=O)(=O)c1cccc(C(=O)OCC(=O)Nc2ccccc2)c1	-4.43
Cc1nn(C)cc1C(=O)NNC(=S)Nc1ccccc1	10.7
CCC1(CC)Cc2ccccc2-c2nc(CCl)[nH]c(=O)c21	13.8
O=C(CSc1ncccc1C(=O)O)c1ccccc1F	2.97
COc1ccccc1OCC(=O)Nc1ccccc1C(=O)Nc1cccc(C(=O)O)c1	15.1
C[C@]12CC[C@H](OS(=O)(=O)O)CC1=CC[C@@H]1[C@@H]2CC[C@]2(C)C(=O)CC[C@@H]12.O.[Na]	5.88
CN(C)c1nc(-c2ccccc2)[n+](C)s1.[O-][Cl+3]([O-])([O-])[O-]	4.46
CCOc1ccc(/C=C(\C)C(=O)c2c(C)cc(C)[nH]c2=O)cc1	8.72
Cc1cccc(OCC(=O)NNC(=O)c2ccc([N+](=O)[O-])cc2)c1	11.8
COc1ccc(-c2[nH]n(-c3ccc([N+](=O)[O-])cc3)c(=O)c2C=NCCN2CCNCC2)cc1	2.86
CCNc1oc(/C=C/c2ccc(OCC)cc2)nc1C#N	15.7
Cc1cc2ncn(CCOc3ccccc3)c2cc1C	8.19
CCCCn1c(N)c(N(CC)C(=O)CN2C(=O)NC(C)(c3ccccc3)C2=O)c(=O)[nH]c1=O (centres unmarked)	12.9
CCCC(=O)NC(c1ccco1)c1cc(Cl)c2cccnc2c1O (centres unmarked)	17.4
COC(=O)c1cc(C)ccc1OCc1ccc([N+](=O)[O-])cc1	4.34
COc1cc(OC)cc(C(=O)Nc2ccc3c(c2)OCCO3)c1	7.93
CSc1ccccc1OCc1cc(C(=O)N2CCN(C)C(c3ccccc3)C2)no1 (centres unmarked)	5.67
Cn1c(=O)c2c(nc(-n3ccnc3)n2Cc2ccc([N+](=O)[O-])cc2)n(C)c1=O	-10.9
CC(C)(C)NC(=O)CSc1nc(N)c(-c2ccccc2)c(=O)[nH]1	14.9
CCOC(CCn1c(SCC(=O)NC2CCCC2)nc2ccccc2c1=O)OCC	10.8
N#CCN1C(=O)NC2(CCCc3sccc32)C1=O (centres unmarked)	10.9
O=C(NC1CCCCC1)c1cc([N+](=O)[O-])ccc1N1CCCC1	5.41

SMILES	hERG current change (%, negative = inhibition) at 1uM [%]
CCC(C)NC(=O)c1cc2cc3ccc(OC)cc3nc2s1 (centres unmarked)	5.26
COC(=O)c1ccc(/C=C(\C#N)C(=O)NC(C)c2ccccc2)cc1 (centres unmarked)	16
O=C(c1ccccc1)C(O)c1ccccc1 (centres unmarked)	9.88
CC(Nc1nc(-c2ccc(F)cc2)cs1)c1nc2cc(Cl)c(Cl)cc2n1CCCO (centres unmarked)	13.4
COC(=O)c1ccc(C)c(NC(=O)c2c(-c3ccccc3)noc2C)c1	-6.64
COc1ccc(C)cc1-n1nnnc1SCC(=O)NNC(=O)c1ccc([N+](=O)[O-])cc1	-4.14
O=C(NCc1ccco1)c1cccc2ccccc12	8.21
Cc1ccc(NS(=O)(=O)c2ccc(-n3cccn3)cc2)cc1C	19.4
CCN1C(=O)C(O)(C2COC(C)(C)CC2=O)c2cc(Br)ccc21 (centres unmarked)	-0.0769
COc1ccc(NC(=O)C2C3C=CC(C3)C2C(=O)NCc2ccco2)c(OC)c1 (centres unmarked)	13.7
CCOC(=O)c1cc(-c2ccccc2C)nn1CC1CC(c2ccc(OC)cc2)=NO1 (centres unmarked)	5.77
Cn1cc(CCNC(=O)c2ccc3nc(Cc4ccccc4F)oc3c2)cn1	13.4
CC(=O)c1ccc(OC(C)C)c(Cc2c(O)[nH]c(=S)[nH]c2=O)c1	7.4
O=c1oc2ccccc2n1Cc1cccc(C(F)(F)F)c1	4.88
Nc1ccc(O)cc1	10.2
COc1ccc(/C(O)=C2/C(=O)C(=O)N(CC3CCCO3)C2c2cccc(O)c2)cc1 (centres unmarked)	12.9
CN1CCN(S(=O)(=O)c2ccc(NC(=O)COc3ccccc3Cl)cc2)CC1	10.3
COc1ccc(CCNC(=O)CCCn2nc(C)c([N+](=O)[O-])c2C)cc1OC	9.07
CCn1c(CNC(=O)c2cc(OC)c(OC)c(OC)c2)cc2cc(C)ccc21	15.6
Cl.Fc1ccc(C(c2nnnn2Cc2cccs2)N2CCN(C3CCCC3)CC2)cc1 (centres unmarked)	-49.7
CCOc1cnc(-c2ccccc2F)o1	8.13
COC(=O)Cn1c(=NC(=O)CN2C(=O)CCC2=O)sc2cc(S(N)(=O)=O)ccc21	14.3
Nc1nc(N)nc(-c2cc(C(F)(F)F)ccc2Cl)n1	10.9

SMILES	hERG current change (%, negative = inhibition) at 1uM [%]
CCOC(=O)CNC(=O)C(Cc1ccccc1)NS(=O)(=O)c1cccs1 (centres unmarked)	1.64
CC(C)C(=O)NNc1nc2ccccc2s1	2.3
COc1ccc(C(=O)N2CCN(c3nnnn3-c3ccccc3)CC2)cc1OC	-3.84
CN(CC(=O)N1CCCC1)S(=O)(=O)c1ccc2ccccc2c1	9.52
COc1ccccc1/C=C/C=N/N1CCN(Cc2ccc(Cl)cc2)CC1.Cl	12.2
O=S(=O)(NCCN1CCOCC1)c1cc(Cl)c(Cl)cc1Cl	15.1
C=CCN(C(=O)c1ccccc1)C1CCS(=O)(=O)C1 (centres unmarked)	8.54
O=C(COc1cccc2c1CCNC2=O)Nc1cccc(F)c1	12.4
COc1ccc(O)c(C=Nc2cc(NC(C)=O)c(Cl)cc2Cl)c1	5.64
CCN(CC)c1cc(Oc2ccccc2)ncn1	6.65
Cc1cc2c(OCC(O)CNC3CCCCC3)cccc2[nH]1 (centres unmarked)	13
Cc1cc(SCC#N)nc2ccccc12	6.69
COCCC(=O)N1CCC(Oc2ccc(C(=O)NCCc3cnn(C)c3)cc2)CC1	14.3
CCCOc1ccc(C(C)=O)cc1CN1CCOCC1.Cl	3
CCC(C)(C)NC(=O)C(c1ccccc1)N(Cc1cccnc1)C(=O)c1csnn1 (centres unmarked)	9.71
CN(CCc1ccccn1)C(=O)Nc1ccc(F)cc1	13.4
Cc1noc(C)c1C(=O)N(C)Cc1ccccc1	15.6
COc1ccc(N(CC(=O)NC(C)C)S(=O)(=O)c2ccc(NC(C)=O)cc2)cc1	1.39
CCOC(=O)C1=C(C)NC(=O)NC1c1cc(C)sc1C (centres unmarked)	11.1
CC(C)c1ccc(CC(C)C2C3=C(CCCC3=O)OC3=C2C(=O)CCC3)cc1 (centres unmarked)	6.33

Reference: paper PMC4336329 (PLoS ONE, 2015)
